Assay results reported in the supplement of paper PMC12217912.
Some of the results follow. Sequences were assembled here from the parent chain. Values near 0.05 are background.

B1: TEV protease; numbered along this chain (parent)
chain: MGESLFKGPRDYNPISSSICHLTNESDGHTTSLYGIGFGPFIITNKHLFRRNNGTLVVQSLHGVFKVKDTTTLQQHLVDGRDMIIIRMPKDFPPFPQKLKFREPQREERICLVTTNFQTKSMSSMVSDTSCTFPSGDGIFWKHWIQTKDGQCGSPLVSTRDGFIVGIHSASNFTNTNNYFTSVPKNFMELLTNQEAQQWVSGWRLNADSVLWGGHKVFMVKPEEPFQPVKEATQL

Variants of: B1
Test: raw area under fraction-flipped curve 0-4 h after induction (AUC4h, not background-subtracted), DNA-recorder readout of cleavage of the substrate (dimensionless); higher = more cleavage of the substrate by the protease variant
Details: temperature: 34 °C; time window: 0-4 h after rhamnose induction
Description: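 In vivo DNA recorder in E. coli TOP10(DE3) ΔrhaA at 34 °C. Each TEVp single-site mutant (parent TEVp 0) is paired with a single-site variant of the 7-mer TEVs (canonical ENLYFQ|S). The substrate sits between flexible linkers in a Bxb1-sfGFP-TEVs-SsrA fusion, so cleavage stabilises Bxb1 and speeds flipping of a recombination array, read by NGS. The value is the raw area under the fraction-flipped curve over 0-4 h after rhamnose induction (AUC4h), with ≥20 reads per time point. It is not background-subtracted; inactive controls average about 0.047.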
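Also: Bxb1 expression induced with 0.2% (w/v) L-rhamnose at OD600 near 0.5, cultures sampled hourly, flipped fraction per protease–substrate barcode pair counted by paired-end Illumina sequencing.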

| Variant | area with substrate EALYFQS | area with substrate EDLYFQS | area with substrate EELYFQS | area with substrate EGLYFQS | area with substrate EHLYFQS | area with substrate EILYFQS | area with substrate EKLYFQS | area with substrate ELLYFQS | area with substrate EMLYFQS | area with substrate EPLYFQS | area with substrate EQLYFQS | area with substrate ERLYFQS | area with substrate ESLYFQS | area with substrate EVLYFQS | area with substrate EWLYFQS | area with substrate EYLYFQS | area with substrate ECLYFQS | area with substrate ETLYFQS | area with substrate EFLYFQS |
| --- | --- | --- | --- | --- | --- | --- | --- | --- | --- | --- | --- | --- | --- | --- | --- | --- | --- | --- | --- |
| N175L | 0.0924 | 0.0841 | 0.0805 | 0.0735 | 0.0819 | 0.0734 | 0.0623 | 0.0678 | 0.103 | 0.0834 | 0.0941 | 0.059 | 0.0909 | 0.0706 | 0.0598 | 0.0883 |  |  |  |
| Y179E | 0.0698 | 0.0662 |  |  |  |  |  |  | 0.0622 |  |  |  | 0.0504 |  | 0.0604 |  |  |  |  |
| Y179A | 0.0637 |  |  |  |  |  |  | 0.0504 |  |  |  |  | 0.0632 |  |  |  | 0.0655 | 0.0646 |  |
| Y179R | 0.0654 |  | 0.0697 | 0.0546 | 0.0494 | 0.0544 | 0.0562 | 0.0543 | 0.0591 |  |  |  | 0.071 | 0.0625 |  | 0.07 |  | 0.0588 | 0.0349 |
| Y179S | 0.0541 |  | 0.0637 | 0.0507 |  | 0.055 |  | 0.0681 | 0.0602 | 0.0594 |  | 0.0628 | 0.0748 | 0.0482 | 0.054 | 0.0479 | 0.0573 |  | 0.0522 |
| S169I | 0.0638 |  | 0.0625 | 0.0641 | 0.0563 | 0.053 | 0.0573 | 0.0605 | 0.0447 | 0.0619 | 0.044 | 0.0622 | 0.0607 | 0.0523 | 0.0372 | 0.0726 | 0.0455 |  | 0.0614 |
| S169D | 0.067 | 0.0634 |  | 0.0735 |  | 0.0583 | 0.0647 | 0.0575 |  | 0.0557 | 0.0507 | 0.0634 | 0.0567 | 0.0514 | 0.0708 |  |  | 0.0519 | 0.0595 |
| V183P | 0.109 |  | 0.0638 |  | 0.0895 | 0.0834 | 0.119 | 0.0678 | 0.105 | 0.111 | 0.109 | 0.104 | 0.0853 | 0.104 |  | 0.0713 | 0.0771 | 0.132 | 0.131 |
| V183D | 0.045 |  |  | 0.0318 | 0.0634 | 0.0452 | 0.0472 | 0.0705 | 0.044 | 0.0435 | 0.0497 | 0.0464 | 0.0542 | 0.0426 | 0.0535 | 0.0532 | 0.0542 |  | 0.0971 |
| V183A | 0.0819 |  |  | 0.112 |  | 0.0836 | 0.0883 | 0.0873 | 0.127 | 0.0856 | 0.1 | 0.0756 | 0.0865 |  | 0.0806 | 0.0863 |  |  |  |
| V183W | 0.0935 |  | 0.117 | 0.08 | 0.0451 | 0.0678 | 0.0848 | 0.0758 | 0.0826 | 0.082 |  | 0.0678 | 0.0671 | 0.0657 | 0.0702 | 0.0882 | 0.0697 | 0.089 |  |
| R160W | 0.0547 |  | 0.166 | 0.101 |  | 0.117 |  | 0.118 |  |  | 0.125 |  | 0.097 |  | 0.0704 | 0.0782 |  | 0.116 |  |
| N177P | 0.069 |  | 0.0621 | 0.0612 |  | 0.0517 | 0.0694 | 0.0598 | 0.0658 | 0.066 | 0.0754 | 0.0609 | 0.07 | 0.0657 | 0.105 | 0.0712 | 0.0816 | 0.0704 |  |
| N177C | 0.23 |  |  | 0.14 |  | 0.101 | 0.122 | 0.107 | 0.149 | 0.166 | 0.163 | 0.135 | 0.15 | 0.14 | 0.157 | 0.136 | 0.151 |  | 0.151 |
| N177I | 0.167 | 0.205 |  |  |  | 0.116 |  |  | 0.231 |  | 0.11 | 0.172 | 0.164 | 0.122 |  |  | 0.101 | 0.155 |  |
| G162F | 0.105 | 0.13 | 0.0759 | 0.0779 |  | 0.093 | 0.0797 | 0.0712 |  | 0.116 | 0.0909 | 0.0961 | 0.0841 | 0.0839 |  | 0.0817 |  |  |  |
| G162R | 0.144 |  |  | 0.105 | 0.109 | 0.0867 | 0.108 |  | 0.0114 |  |  |  | 0.0984 | 0.094 |  | 0.131 | 0.0887 |  | 0.1 |
| G162D | 0.0737 |  |  | 0.0988 | 0.0659 | 0.0827 |  | 0.0744 | 0.118 |  |  |  |  | 0.185 | 0.0803 |  | 0.098 |  | 0.121 |
| G162L | 0.0908 |  | 0.105 |  | 0.0981 | 0.0883 |  |  | 0.097 |  |  | 0.104 | 0.102 |  | 0.0509 | 0.0931 | 0.111 | 0.106 |  |
| E189C | 0.0941 | 0.0812 | 0.0861 | 0.0768 |  | 0.0802 | 0.0664 | 0.0789 | 0.0893 | 0.0779 | 0.0743 | 0.105 | 0.0818 |  | 0.0715 | 0.0655 |  | 0.0848 |  |
| E189G | 0.0983 |  | 0.137 | 0.0866 | 0.0827 | 0.102 | 0.104 | 0.0879 |  |  | 0.119 |  | 0.11 |  | 0.0915 |  |  | 0.114 |  |
| E189T | 0.128 |  |  | 0.0563 |  | 0.108 | 0.11 |  |  | 0.104 |  | 0.0991 | 0.116 | 0.0852 |  | 0.0792 | 0.128 |  | 0.0955 |
| E189N | 0.0768 |  | 0.0676 | 0.0888 | 0.137 | 0.104 | 0.106 | 0.0823 | 0.108 | 0.106 | 0.0949 | 0.0509 | 0.0997 | 0.0887 | 0.136 |  |  | 0.129 | 0.0924 |
| N178A | 0.132 | 0.135 |  |  |  |  | 0.102 |  |  |  |  |  | 0.114 |  |  |  | 0.115 |  |  |
| S158Y | 0.0547 |  |  | 0.048 | 0.0403 | 0.0617 | 0.0602 | 0.0521 | 0.0593 |  | 0.0618 | 0.0533 | 0.0585 |  | 0.0501 |  | 0.0511 |  | 0.0391 |
| T181F | 0.0469 |  | 0.0598 |  |  | 0.0483 |  | 0.0207 | 0.0569 | 0.06 | 0.0543 |  | 0.0798 | 0.0653 | 0.0528 | 0.0597 | 0.0526 | 0.0256 |  |
| F173H | 0.0802 |  | 0.121 | 0.0614 |  | 0.0863 | 0.0724 | 0.0748 | 0.0738 |  | 0.11 |  | 0.117 | 0.0796 | 0.0638 | 0.101 | 0.141 |  |  |
| F173E | 0.0848 |  | 0.0995 | 0.0563 |  |  | 0.0912 |  |  | 0.103 |  | 0.0934 |  | 0.147 |  | 0.075 | 0.0697 |  | 0.0797 |
